In all, about 39,000 compounds went through this assay and about 220 (0.56%) showed activity. The list shows a part of the results.

We go through 37 molecules from the supplement of paper PMC9446081.
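Note: static incubation at 37 °C against the wild-type strain, values averaged over two biological replicates.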

The test system of the assay is Escherichia coli K-12 BW25113. As to the kind of experiment: relative growth (OD600 normalised to plate interquartile mean) (fraction); higher = less growth inhibition, active = 0.2 or less. The conditions noted are these: 50 µM; LB; incubation time: overnight (16-24 h).
Consider `C[C@H](O)C#Cc1cnc2c(c1)C(=O)N([C@@H](C)CO)C[C@H](C)[C@@H](CN(C)Cc1cncnc1)O2`, for which the relative growth is inactive: 0.997.
Next, `C[C@H](CO)N1C[C@H](C)[C@H](CN(C)C(=O)Nc2ccc(C(F)(F)F)cc2)OCCCC[C@H](C)Oc2ccc(NC(=O)Nc3cccc4ccccc34)cc2C1=O`: inactive: 1.02.
Turning to `C[C@H](CO)N1C[C@H](C)[C@H](CN(C)S(=O)(=O)c2ccc(F)cc2)Oc2ncc(-c3cccc(C(=O)N(C)C)c3)cc2C1=O`, the relative growth was inactive: 0.967.
For the molecule `C[C@H]1CN([C@@H](C)CO)C(=O)c2cccc(NS(=O)(=O)c3ccccc3)c2O[C@H]1CN(C)S(C)(=O)=O`, the relative growth was inactive: 0.967.
Turning to `COC(=O)C1=CO[C@@H](O[C@@H]2O[C@H](CO)[C@@H](O)[C@H](O)[C@H]2O)[C@@H]2[C@@H](C)[C@@H](O)C[C@H]12`, the relative growth was inactive: 0.98.
As for `CCc1nc(N)nc(N)c1-c1ccc(Cl)cc1`, the relative growth was inactive: 0.784.
In the case of `Cc1noc(C)c1NC(=O)Nc1ccc2c(c1)C(=O)N([C@H](C)CO)C[C@@H](C)[C@H](CN(C)Cc1ccc(C(=O)Nc3ccccc3N)cc1)O2`, the relative growth was inactive: 0.941.
As for `C[C@H]1CCCCO[C@H](CN(C)C(=O)Nc2ccccc2)[C@@H](C)CN([C@@H](C)CO)C(=O)c2cc(NC(=O)c3ccccc3)ccc2O1`, the relative growth is inactive: 1.03.
`C[C@H](CO)N1C[C@H](C)[C@@H](CN(C)S(=O)(=O)c2ccccc2)Oc2ccc(NS(=O)(=O)c3ccc(F)cc3)cc2C1=O`: the relative growth was inactive: 1.
With `Nc1cc(Cl)ncn1`, the relative growth is inactive: 0.995.
Turning to `C[C@@H]1CCCCO[C@@H](CN(C)Cc2ccc(C(F)(F)F)cc2)[C@H](C)CN([C@@H](C)CO)C(=O)c2cc(NS(=O)(=O)c3ccc(Cl)cc3)ccc2O1`, the relative growth is inactive: 0.999.
Consider `O=C(C[C@@H]1CC[C@@H]2[C@H](COC[C@@H](O)CN2S(=O)(=O)c2ccccc2)O1)N1CCc2ccccc2C1`, for which the relative growth was inactive: 0.979.
`COc1cccc(S(=O)(=O)N(C)C[C@H]2Oc3ncc(C#CCC(C)C)cc3C(=O)N([C@@H](C)CO)C[C@H]2C)c1`: the relative growth is inactive: 1.02.
Consider `O=C(O)C1=C[C@@H](O)[C@@H](O)[C@H](O)C1`, for which the relative growth is inactive: 0.996.
`C[C@H](O)C(=O)Nc1c(I)c(C(=O)NC(CO)CO)c(I)c(C(=O)NC(CO)CO)c1I`: the relative growth is inactive: 0.998.
As to `C[C@H](CO)N1C[C@H](C)[C@@H](CN(C)C(=O)Nc2ccc(C(F)(F)F)cc2)Oc2ccc(NC(=O)Nc3ccc(F)cc3)cc2C1=O`, the relative growth is inactive: 1.
Take `C[C@H]1CN([C@@H](C)CO)C(=O)c2c(c3ccccc3n2C)-c2ccccc2CO[C@H]1CN(C)C(=O)Nc1cccc(Cl)c1Cl`: the relative growth was inactive: 1.01.
For `C[C@H]1CCCCO[C@H](CN(C)C(=O)Cc2ccccc2)[C@@H](C)CN([C@@H](C)CO)C(=O)c2cc(NC(=O)Nc3ccccc3)ccc2O1`, the relative growth was inactive: 1.02.
`O=C(N[C@H]1CCS(=O)(=O)C1)N1CCCCC1`: the relative growth was inactive: 1.
As for `CCCc1nn(C)c2c(=O)[nH]c(-c3cc(S(=O)(=O)N4CCN(C)CC4)ccc3OCC)nc12.O=C(O)CC(O)(CC(=O)O)C(=O)O`, the relative growth is inactive: 0.963.
Regarding `C[C@@H]1CCCCO[C@@H](CN(C)Cc2ccc(C(F)(F)F)cc2)[C@H](C)CN([C@@H](C)CO)C(=O)c2cc(NC(=O)C3CCCCC3)ccc2O1`, the relative growth was inactive: 1.01.
In the case of `C[C@@H]1CN([C@H](C)CO)C(=O)c2cc(NC(=O)Nc3ccc4c(c3)OCO4)ccc2O[C@@H](C)CCCCO[C@@H]1CN(C)S(=O)(=O)c1ccccc1`, the relative growth was inactive: 1.05.
On to `C[C@H]1CN([C@@H](C)CO)C(=O)c2cccc(NC(=O)Nc3cccc4ccccc34)c2O[C@H]1CN(C)C(=O)Nc1cccc2ccccc12`, for which the relative growth is inactive: 1.04.
The result for `Cc1noc(C)c1NC(=O)N(C)C[C@@H]1Oc2ccc(NC(=O)Nc3ccc(C(F)(F)F)cc3)cc2C(=O)N([C@@H](C)CO)C[C@H]1C` reads inactive: 0.959.
On to `Cc1ccc2oc3c(c(=O)c2c1)[C@@]1(C(=O)N(Cc2ccccc2F)c2ccccc21)N(Cc1ccco1)C3=O`, for which the relative growth is inactive: 1.06.
Next, `CC(C)(C)S(=O)N1Cc2cc(C(=O)Nc3ccc(-c4ccccc4)cc3)nc(-c3cccc(C#CCC4CCCC4)c3)c2[C@@H]1CCO` (some centres not stated): inactive: 1.03.
For the molecule `C[C@H]1CN([C@@H](C)CO)C(=O)c2cccc(NC(=O)c3ccncc3)c2O[C@@H]1CN(C)Cc1ccc(-c2ccccc2)cc1`, the relative growth was inactive: 1.03.
Regarding `COc1ccc(S(=O)(=O)N[C@H]2C=C[C@@H](CC(=O)N3CCN(c4ccccc4)CC3)O[C@H]2CO)cc1`, the relative growth was inactive: 1.
With `CN(CC(=O)NCc1ccccn1)S(=O)(=O)c1cc(Br)cnc1N`, the relative growth was inactive: 1.02.
For `COCC#Cc1cnc2c(c1)C(=O)N([C@H](C)CO)C[C@@H](C)[C@H](CN(C)C(C)=O)O2`, the relative growth was inactive: 0.998.
Turning to `CC[C@@H](C)CCCC(=O)N[C@@H](CCN)C(=O)N[C@H](C(=O)N[C@@H](CCN)C(=O)N[C@H]1CCNC(=O)[C@H]([C@@H](C)O)NC(=O)[C@H](CCN)NC(=O)[C@H](CCN)NC(=O)[C@H](CC(C)C)NC(=O)[C@@H](CC(C)C)NC(=O)[C@H](CCN)NC1=O)[C@@H](C)O`, the relative growth was inactive: 0.262.
The result for `COc1ccc(NC(=O)N(C)C[C@@H]2OCCCC[C@H](C)Oc3ccc(NS(=O)(=O)c4c(C)noc4C)cc3C(=O)N([C@@H](C)CO)C[C@H]2C)cc1` reads inactive: 1.03; that for `CN(C)/C=N/[C@@H]1N=C(C2CC2)N(C)C(=O)N1`, inactive: 0.989.
Consider `C[C@@H]1CN([C@H](C)CO)C(=O)c2cc(-c3ccc(C(=O)N(C)C)cc3)cnc2O[C@@H]1CN(C)C(=O)CN(C)C`, for which the relative growth is inactive: 0.999.
Take `CCCC#Cc1cnc2c(c1)C(=O)N([C@H](C)CO)C[C@@H](C)[C@H](CN(C)S(=O)(=O)c1cn(C)cn1)O2`: the relative growth is inactive: 0.998.
In the case of `C/C=C/c1cnc2c(c1)C(=O)N([C@H](C)CO)C[C@@H](C)[C@@H](CN(C)S(=O)(=O)c1ccc(OC)cc1)O2`, the relative growth is inactive: 1.01.
As to `COc1ccc(S(=O)(=O)N[C@@H]2CC[C@@H](CCNC(=O)CN3CCOCC3)O[C@@H]2CO)cc1`, the relative growth is inactive: 0.973.
